Measured values as given in PubChem BioAssay (NCI).
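Results reflect a 48-hour exposure of cells in 96-well plates to compound at five concentrations. TGI: concentration producing complete growth inhibition.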 For part of its entries the source gives two or more results. The list is limited to them. There may be further records. Records of one sample usually come from different ranges of test concentrations, which the source does not state; a value can be the end of its range.

How the values were obtained:
Experiment in all cases: NCI-60 cell line screen, 48 h
[1] = system: BT-549 breast
[2] = system: IGROV1 ovarian
[3] = system: NCI-H226 lung
[4] = system: SW-620 colon
[5] = system: T-47D breast

## CCCCCCCCCCCC[C@H](O)[C@H]1CC[C@H]([C@H](O)CCCC[C@H](O)CCCCC[C@@H](O)CC2=C[C@H](C)OC2=O)O1
[1]
  TGI: 2.14 µM and 26.7 µM

## C[C@]12CC[C@H](OC3OC(O)C(O)C(O)C3O)C=C1CCC1C2CC[C@]2(C)[C@@H](c3ccc(=O)oc3)CC[C@]12O (stereo not given in full)
[2]
  TGI: 537 nM and 50 µM

## CCCCCc1c(C)[nH]c(/C=C2\N=C(c3ccc[nH]3)C=C2Oc2ccccc2)c1C
[3]
  TGI: 108 nM and 3.21 µM
[4]
  TGI: 1.01 µM and 74.8 nM
[5]
  TGI: 76.8 nM and 1.22 µM
